Test results taken from PubChem BioAssay AID485344 (National Center for Advancing Translational Sciences (NCATS), 2010).
Among all 340,000 compounds or so, about 6,900 (2%) were called active. Cut-off read from the data, not from the text of the source: active = inhibition above about 30%; inactive = below that, where a call was filed. The entries are a selection whose mix differs from that of the whole data set. Where no call is shown, the source filed none.

Molecular target: D(2) dopamine receptor (Homo sapiens) (UniProt P14416)
Chain of UniProt P14416 (P14416 whole entry, looked up): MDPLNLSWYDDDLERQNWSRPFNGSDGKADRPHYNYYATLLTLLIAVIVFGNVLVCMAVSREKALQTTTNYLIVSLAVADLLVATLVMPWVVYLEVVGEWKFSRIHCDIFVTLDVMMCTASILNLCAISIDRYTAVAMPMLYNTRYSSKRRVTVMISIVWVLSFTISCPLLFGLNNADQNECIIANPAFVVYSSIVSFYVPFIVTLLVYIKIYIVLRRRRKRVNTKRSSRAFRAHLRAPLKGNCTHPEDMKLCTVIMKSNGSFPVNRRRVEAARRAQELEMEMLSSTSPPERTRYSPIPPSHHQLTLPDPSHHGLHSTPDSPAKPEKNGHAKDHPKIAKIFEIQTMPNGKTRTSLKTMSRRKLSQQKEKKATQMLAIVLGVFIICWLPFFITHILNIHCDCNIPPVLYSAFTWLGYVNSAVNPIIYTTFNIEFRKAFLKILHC
Experiment: HTS Assay for Allosteric Antagonists of the Human D2 Dopamine Receptor: Primary Screen for Antagonists; note: 0% is about no effect
Conditions: HEK293 TREx D2 cells, calcium flux, dopamine EC80; at 10 µM; stronger effect = higher value
How it was run: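 Calcium flux kinetic readout in an inducible HEK293 TREx D2 line plated overnight at 30 C. After 180 s compound exposure, an EC80 dopamine challenge follows with another 180 s kinetic read to detect antagonism.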

SMILES | inhibition
O=C(COc1ccc(Br)cc1Cl)Nc1ncn[nH]1 | -17.4%
CCc1ccc(NC(=O)CSc2nc(-c3ccccc3Cl)nc3c2Cc2c(CO)cnc(C)c2O3)cc1 | 0.886%
COc1ccc(OCC(=O)Nc2ccc3c(c2)nc(CCNC(=O)c2ccco2)n3C)cc1 | -0.228%
COc1ccccc1CNC(=O)C1=C(C)C(=O)OC12CCC(C)CC2 (stereo not drawn) | active: 47.4%
CCOc1ccc(CCNC(=O)c2nn(-c3ccc(OC)c(Cl)c3)c(=O)c3c2c2ccccc2n3C)cc1OCC | 2.95%
COc1cc2[nH]c(=S)nc(NCC3CCCO3)c2cc1OC (stereo not drawn) | active: 32.5%
CN1CC[n+]2c(CN3C(=O)c4ccccc4C3=O)csc21 | active: 45.2%
COc1ccc(C2CC(=O)N(Cc3ccc(F)cc3)c3ccccc3S2)cc1OC (stereo not drawn) | -18.3%
COc1ccc(OC)c2sc(N3CCN(C(=O)c4ccc5c(c4)CCCC5)CC3)nc12 | -1.99%
CCC1CCc2nc3sc(C(=O)Nc4ccc(C)cc4)c(N)c3cc2C1 (stereo not drawn) | -2.54%
CCCCCn1c(=O)[nH]c2cc(C(=O)NCc3ccc(Cl)cc3)ccc2c1=O | 14.9%
COc1ccccc1C(=O)NCCn1cc(SCc2ccc(C)cc2)c2ccccc21 | 8.26%
c1ccc(N2CCN(Cc3cccn3-c3nnc(N4CCN(C5CCCCC5)CC4)s3)CC2)cc1 | 6.87%
CCc1ccc(-c2nn(CC(=O)NC3CCCCC3)c3c2cnc2ccc(C)cc23)cc1 | -13.7%
CCc1ccccc1NS(=O)(=O)c1ccc2c(c1)CCN2C(=O)C1CC1 | 24.3%
CCN(c1ccccc1C)S(=O)(=O)c1ccc(N2CCCCS2(=O)=O)cc1 | 9.73%
CC1CC(C)(C)NC(=S)N1CCC(=O)NCCc1ccc(Cl)cc1 (stereo not drawn) | active: 34.7%
CCSc1nnc2c(n1)OC1(CCCC1)Nc1ccccc1-2 | active: 38.7%
CCOc1cc(N2CCOCC2)c(OCC)cc1NC(=O)C1=COCCO1 | active: 39.1%
O=C(O)c1ccc(Nc2nc3ccccc3n3cnnc23)cc1 | 1.23%
Cc1nn(C)c2c1c(C(F)(F)F)cc(=O)n2CC(=O)NCCC(C)C | 2.88%
Cc1cccc(-c2nc3scc(CCNS(=O)(=O)c4ccc(Oc5ccccc5)cc4)n3n2)c1 | -15.5%
O=C(Nc1ccc2oc(-c3cccnc3)nc2c1)c1ccc(-c2ccccc2OC(F)(F)F)o1 | 0.153%
COc1ccc(-n2nc(C(=O)Nc3cc(OC)c(OC)c(OC)c3)c(=O)n(C)c2=O)cc1 | -10.9%

SMILES | inhibition
COc1ccc(-n2nc(C(=O)N3CCN(c4ccc(F)cc4)CC3)c3c4ccccc4n(C)c3c2=O)cc1 | -0.485%
CC1=C(c2ccc(C)cc2)S(=O)(=O)NC1=NCCCN1CCN(c2ccccc2F)CC1 | 16.3%
CN(C)S(=O)(=O)c1ccc2c(c1)N(CC(=O)NCc1ccc(F)cc1)C(=O)CS2 | -0.23%
COc1ccc(C)cc1NC(=O)Cn1c(=O)c(C(F)(F)F)nc2ccccc21 | -7.22%
Cn1nc(C(F)(F)F)c(C#N)c1N1CCN(c2cccc(C(F)(F)F)c2)CC1 | active: 43.2%
COc1ccc(Oc2c(C(F)(F)F)oc3c(CN4CCCC(C)C4)c(O)ccc3c2=O)cc1 (stereo not drawn) | 1.32%
COc1ccccc1N1CCN(c2ccc(=O)n(CC(=O)NCc3ccc(OC(C)C)cc3)n2)CC1 | -2.32%
O=C(c1cc([N+](=O)[O-])ccc1Cl)N1CCN(c2ccc([N+](=O)[O-])cc2)CC1 | active: 40.8%
O=C(Nc1ccc2oc(-c3cccnc3)nc2c1)c1ccc(Br)cc1 | -7.84%
CC(Sc1nnc(-c2ccccc2F)n1C1CC1)C(=O)NC(N)=O (stereo not drawn) | active: 45.3%
COc1ccc(NC(=O)Cn2c(=O)n(Cc3nc(-c4ccccc4)no3)c(=O)c3cc4c(cc32)OCO4)c(OC)c1 | 4.58%
Cc1ccc(CN2CCCn3nc(C(=O)NC(C)C)cc3C2=O)cc1 | -6.03%
CC(=O)Nc1nonc1-c1nnc(SCC(=O)Nc2cccc(F)c2)n1-c1ccccc1 | 3.52%
CC(=O)c1ccc(NC(=O)C2Cc3ccccc3N2C(=O)c2ccccc2)cc1 (stereo not drawn) | -13.9%
Cc1ccc(N2CCN(S(=O)(=O)c3cc(C(=O)Nc4cc(Cl)cc(Cl)c4)ccc3F)CC2C)cc1 (stereo not drawn) | 16.3%
COC(=O)c1scc(-c2ccc(C)cc2)c1S(=O)(=O)Nc1ccc(F)cc1F | 4.07%
Cc1cccc(-n2c(=O)c3c(c4cc(C)ccc4n3C)n(CC(=O)NCC3CCCO3)c2=O)c1 (stereo not drawn) | -0.665%
Cc1cccc(N2C(=O)C(CC(=O)Nc3ccc(Cl)cc3)N(Cc3ccco3)C2=O)c1 (stereo not drawn) | -7.39%
CCCOc1ccc(C(=O)Nc2cc3c(cc2N2CCOCC2)n(C)c(=O)n3C)cc1 | -10.4%
Cc1oc(-c2cccc(Cl)c2)nc1CS(=O)(=O)CC(=O)NCc1ccccc1Cl | 10%
Cc1ccc2c(c1)c(=O)c1ccccc1n2CCCC(=O)Nc1cc(Cl)ccc1C | -1.49%
Cc1oc2ccc(O)c(CN3CCN(C)CC3)c2c1C(=O)Nc1cccc(Cl)c1C | 3.53%
COC(=O)c1ccc(C2c3c(oc4ccccc4c3=O)C(=O)N2c2nc(C)c(C(=O)OC)s2)cc1 (stereo not drawn) | 24.4%
O=C(Nc1cc(Cl)cc(Cl)c1)c1ccc2c(c1)N(Cc1cccc(Cl)c1)C(=O)c1ccccc1S2=O (stereo not drawn) | 3.31%
